# Measured values reported in the supplement of paper PMC8728848.
# This is one part of the list.
# B1: Strep tagII-anxA1 (Homo sapiens), P04083 (protein)
# chain: MAMVSEFLKQAWFIENEEQEYVQTVKSSKGGPGSAVSPYPTFNPSSDVAALHKAIMVKGVDEATIIDILTKRNNAQRQQIKAAYLQETGKPLDETLKKALTGHLEEVVLALLKTPAQFDADELRAAMKGLGTDEDTLIEILASRTNKEIRDINRVYREELKRDLAKDITSDTSGDFRNALLSLAKGDRSEDFGVNEDLADSDARALYEAGERRKGTDVNVFNTILTTRSYPQLRRVFQKYTKYSKHDMNKVLDLELKGDIEKCLTAIVKCATSKPAFFAEKLHQAMKGVGTRHKALIRIMVSRSEIDMNDIKAFYQKMYGISLCQAILDETKGDYEKILVALCGGN
# Columns and labels:
# Assay in all cases: glycan array binding signal (z-score within array); higher = stronger binding
# Details in all cases: glycan notation: IUPAC condensed, linker removed
# [1] = biological target: Gal(a1-3)Gal(b1-4)GlcNAc(b1-3)GalNAc
# Procedure, shortened: (§1)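 Columns mapping to the same glycan were averaged after glycan names were converted to IUPAC-condensed notation. The data come from 3228 arrays in the Consortium for Functional Glycomics database, limited to those with an available protein sequence. Binding is reported as a within-array Z-score averaged across arrays of one protein sequence and across linkers.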
# [2] = biological target: Gal(a1-3)Gal(b1-4)GlcNAc(b1-6)GalNAc
# Procedure, shortened: as §1
# [3] = biological target: Gal(a1-3)Gal(b1-4)[Fuc(a1-3)]GlcNAc
# Procedure, shortened: as §1
# [4] = biological target: Gal(a1-3)Gal(b1-4)[Fuc(a1-3)]GlcNAc(b1-2)Man(a1-3)[Gal(a1-3)Gal(b1-4)[Fuc(a1-3)]GlcNAc(b1-2)Man(a1-6)]Man(b1-4)GlcNAc(b1-4)GlcNAc
# Procedure, shortened: as §1
# Gal(a1-3)GalNAc = biological target: Gal(a1-3)GalNAc
# Procedure, shortened: as §1
# [5] = biological target: Gal(a1-3)[Gal(a1-4)]Gal(b1-4)GlcNAc
# Procedure, shortened: as §1
# [6] = biological target: Gal(a1-4)Gal(b1-3)GlcNAc(b1-2)Man(a1-3)[Gal(a1-4)Gal(b1-3)GlcNAc(b1-2)Man(a1-6)]Man(b1-4)GlcNAc(b1-4)GlcNAc
# Procedure, shortened: as §1
# Gal(a1-4)Gal(b1-4)Glc = biological target: Gal(a1-4)Gal(b1-4)Glc
# Procedure, shortened: as §1
# Gal(a1-4)Gal(b1-4)GlcNAc = biological target: Gal(a1-4)Gal(b1-4)GlcNAc
# Procedure, shortened: as §1
# [7] = biological target: Gal(a1-4)Gal(b1-4)GlcNAc(b1-2)Man(a1-3)[Gal(a1-4)Gal(b1-4)GlcNAc(b1-2)Man(a1-6)]Man(b1-4)GlcNAc(b1-4)GlcNAc
# Procedure, shortened: as §1
# [8] = biological target: Gal(a1-4)Gal(b1-4)GlcNAc(b1-3)Gal(b1-4)Glc
# Procedure, shortened: as §1
# Gal(a1-4)GlcNAc = biological target: Gal(a1-4)GlcNAc
# Procedure, shortened: as §1
# Gal(a1-6)Glc = biological target: Gal(a1-6)Glc
# Procedure, shortened: as §1
# Gal(b1-2)Gal = biological target: Gal(b1-2)Gal
# Procedure, shortened: as §1
# Gal(b1-3)Gal = biological target: Gal(b1-3)Gal
# Procedure, shortened: as §1
# Gal(b1-3)Gal(b1-4)GlcNAc = biological target: Gal(b1-3)Gal(b1-4)GlcNAc
# Procedure, shortened: as §1
# [9] = biological target: Gal(b1-3)Gal(b1-4)GlcNAc(b1-2)Man(a1-3)[Gal(b1-3)Gal(b1-4)GlcNAc(b1-2)Man(a1-6)]Man(b1-4)GlcNAc(b1-4)GlcNAc
# Procedure, shortened: as §1
# Gal(b1-3)GalNAc = biological target: Gal(b1-3)GalNAc
# Procedure, shortened: as §1
# [10] = biological target: Gal(b1-3)GalNAc(a1-3)[Fuc(a1-2)]Gal(b1-4)Glc
# Procedure, shortened: as §1
# [11] = biological target: Gal(b1-3)GalNAc(a1-3)[Fuc(a1-2)]Gal(b1-4)GlcNAc
# Procedure, shortened: as §1
# [12] = biological target: Gal(b1-3)GalNAc(b1-3)Gal(a1-4)Gal(b1-4)Glc
# Procedure, shortened: as §1
# [13] = biological target: Gal(b1-3)GalNAc(b1-4)Gal(b1-4)Glc
# Procedure, shortened: as §1
# [14] = biological target: Gal(b1-3)GalNAc(b1-4)[Neu5Ac(a2-3)]Gal(b1-4)Glc
# Procedure, shortened: as §1
# Gal(b1-3)GlcNAc = biological target: Gal(b1-3)GlcNAc
# Procedure, shortened: as §1
# [15] = biological target: Gal(b1-3)GlcNAc(a1-3)Gal(b1-4)GlcNAc
# Procedure, shortened: as §1
# [16] = biological target: Gal(b1-3)GlcNAc(a1-6)Gal(b1-4)GlcNAc
# Procedure, shortened: as §1
# [17] = biological target: Gal(b1-3)GlcNAc(b1-2)Man(a1-3)[Gal(b1-3)GlcNAc(b1-2)Man(a1-6)]Man(b1-4)GlcNAc(b1-4)GlcNAc
# Procedure, shortened: as §1
# [18] = biological target: Gal(b1-3)GlcNAc(b1-2)Man(a1-3)[Gal(b1-3)GlcNAc(b1-2)Man(a1-6)]Man(b1-4)GlcNAc(b1-4)[Fuc(a1-6)]GlcNAc
# Procedure, shortened: as §1
# [19] = biological target: Gal(b1-3)GlcNAc(b1-2)Man(a1-3)[GlcNAc(b1-4)][Gal(b1-3)GlcNAc(b1-2)Man(a1-6)]Man(b1-4)GlcNAc(b1-4)GlcNAc
# Procedure, shortened: as §1
# [20] = biological target: Gal(b1-3)GlcNAc(b1-2)[Gal(b1-3)GlcNAc(b1-6)]Man(a1-6)[Gal(b1-3)GlcNAc(b1-2)Man(a1-3)]Man(b1-4)GlcNAc(b1-4)GlcNAc
# Procedure, shortened: as §1
# [21] = biological target: Gal(b1-3)GlcNAc(b1-3)Gal(b1-3)GlcNAc
# Procedure, shortened: as §1
# [22] = biological target: Gal(b1-3)GlcNAc(b1-3)Gal(b1-4)Glc
# Procedure, shortened: as §1
# [23] = biological target: Gal(b1-3)GlcNAc(b1-3)Gal(b1-4)GlcNAc
# Procedure, shortened: as §1
# [24] = biological target: Gal(b1-3)GlcNAc(b1-3)Gal(b1-4)GlcNAc(b1-6)[Gal(b1-3)GlcNAc(b1-3)]Gal(b1-4)Glc
# Procedure, shortened: as §1
# [25] = biological target: Gal(b1-3)GlcNAc(b1-3)Gal(b1-4)[Fuc(a1-3)]GlcNAc(b1-6)[Gal(b1-3)GlcNAc(b1-3)]Gal(b1-4)Glc
# Procedure, shortened: as §1
# [26] = biological target: Gal(b1-3)GlcNAc(b1-3)GalNAc
# Procedure, shortened: as §1
# [27] = biological target: Gal(b1-3)GlcNAc(b1-6)Gal(b1-4)GlcNAc
# Procedure, shortened: as §1
# [28] = biological target: Gal(b1-3)GlcNAc(b1-6)GalNAc
# Procedure, shortened: as §1
binder,measurement,setting,value
B1,glycan array binding signal (z-score),[1],-0.559
same,glycan array binding signal (z-score),[2],-0.151
same,glycan array binding signal (z-score),[3],-0.27
same,glycan array binding signal (z-score),[4],3.62
same,glycan array binding signal (z-score),Gal(a1-3)GalNAc,0.115
same,glycan array binding signal (z-score),[5],0.294
same,glycan array binding signal (z-score),[6],0.56
same,glycan array binding signal (z-score),Gal(a1-4)Gal(b1-4)Glc,-0.567
same,glycan array binding signal (z-score),Gal(a1-4)Gal(b1-4)GlcNAc,-0.486
same,glycan array binding signal (z-score),[7],0.154
same,glycan array binding signal (z-score),[8],-0.354
same,glycan array binding signal (z-score),Gal(a1-4)GlcNAc,-0.49
same,glycan array binding signal (z-score),Gal(a1-6)Glc,-0.03
same,glycan array binding signal (z-score),Gal(b1-2)Gal,-0.402
same,glycan array binding signal (z-score),Gal(b1-3)Gal,-0.548
same,glycan array binding signal (z-score),Gal(b1-3)Gal(b1-4)GlcNAc,0.264
same,glycan array binding signal (z-score),[9],0.155
same,glycan array binding signal (z-score),Gal(b1-3)GalNAc,-0.513
same,glycan array binding signal (z-score),[10],-0.278
same,glycan array binding signal (z-score),[11],-0.399
same,glycan array binding signal (z-score),[12],-0.44
same,glycan array binding signal (z-score),[13],-0.696
same,glycan array binding signal (z-score),[14],-0.336
same,glycan array binding signal (z-score),Gal(b1-3)GlcNAc,-0.082
same,glycan array binding signal (z-score),[15],-0.379
same,glycan array binding signal (z-score),[16],-0.44
same,glycan array binding signal (z-score),[17],1.06
same,glycan array binding signal (z-score),[18],-0.167
same,glycan array binding signal (z-score),[19],1.59
same,glycan array binding signal (z-score),[20],-0.255
same,glycan array binding signal (z-score),[21],-0.731
same,glycan array binding signal (z-score),[22],0.663
same,glycan array binding signal (z-score),[23],-0.44
same,glycan array binding signal (z-score),[24],-0.601
same,glycan array binding signal (z-score),[25],-0.076
same,glycan array binding signal (z-score),[26],-0.63
same,glycan array binding signal (z-score),[27],-0.776
same,glycan array binding signal (z-score),[28],-0.114
